Laboratory results reported in PubChem BioAssay AID588855 (National Center for Advancing Translational Sciences (NCATS), 2011).
Among all 410,000 compounds or so, about 5,000 (1.2%) were called active. The shares of active, inactive and inconclusive entries below differ from those in the screen. Calls follow the shape of the dose curve; as a rule, active = well fitted inhibition curve with a large enough effect; inconclusive = small, poorly fitted or top-dose-only effect; inactive = no such curve, though single readings can be large or run the other way. Potencies beside an inconclusive call are fits to weak or partial responses and may not hold up.

Test: qHTS for Inhibitors of TGF-b; also: nearly all actives have a fitted effect of over 65% in size
Conditions: HepG2 CAGA-GFP TGF-b/SMAD3 reporter, GFP fluorescence, 18 h, TGF-beta stimulated, 500 pg/mL final; series mostly up to 46.1 µM; activity, negative = inhibition: at the top concentration
In short: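 HEPG2 CAGA-GFP reporter cells (1000/well, DMEM with 1% FBS) received compounds, then recombinant TGF-beta at 500 pg/mL final for 18 hours at 37 degrees C. Per-cell GFP summed per well was normalised to unstimulated and stimulated DMSO controls before curve fitting.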
% is scaled to controls: 0 for no effect and ±100 for the full control effect; potency is read from the fitted curve at half-maximal effect; tags tell the direction and shape of the fitted curve.

Structure (SMILES)	Potency	activity, negative = inhibition
CCOC(=O)N1CCc2c(sc3c2c(=O)n(Cc2ccccc2)c(=O)n3CC(=O)Nc2c(C)cccc2C)C1	inconclusive: 3.98 µM [inhibitor, single point]	
Cc1cccc(C(=O)N2CCN(c3ccc([N+](=O)[O-])c(NCc4ccco4)c3)CC2)c1	inconclusive: 35.5 µM [inhibitor, single point]	
COc1cc(N(C)C)ccc1/C=C/c1ccnc2ccccc12		inactive: 152%
O=S(=O)(Nc1ccc(Br)cc1)c1cccc2nonc12		inactive: -12.4%
Cc1ccc(NC(=O)CN2CCN(Cc3ccccc3)CC2)c(Br)c1	inconclusive: 35.5 µM [inhibitor, single point]	
CCOc1ccccc1-n1c(SCC(=O)NC(C)(C)C)nnc1-c1ccoc1C	inconclusive: 0.282 µM [inhibitor, full curve, poor fit]	
CC(Oc1cccc(Cl)c1)C(=O)NCCCCc1ccccc1 (stereo not drawn)	inconclusive: 25.1 µM [inhibitor, single point]	
COc1ccc(-c2csc3ncnc(N4CCN(c5ccc(OC)cc5)CC4)c23)cc1	inconclusive: 12.6 µM [inhibitor, partial curve, poor fit]	
Nc1nc2c(ncn2[C@@H]2O[C@H](CNCc3ccc(Oc4cc(-n5cccn5)ncn4)cc3)[C@@H](O)[C@H]2O)c(=O)[nH]1		inactive: -3.45%
COc1cc2c(cc1NC(=O)CC1SC(N3CCCC3)=NC1=O)oc1ccccc12 (stereo not drawn)		inactive: 12.3%
Cc1cccc(C(=O)N(Cc2nc3ccccc3c(=O)[nH]2)C2CCCC2)c1	inconclusive: 35.5 µM [inhibitor, single point]	
Cc1ccc(C(=O)OCC(=O)NC(C)c2ccccc2)cc1C (stereo not drawn)	inconclusive: 10 µM [inhibitor, partial curve, poor fit]	
CC(=O)c1cc(-c2ccccc2)n(CC(=O)NC2CCCCCC2)c1C	inconclusive: 11.2 µM [inhibitor, partial curve, poor fit]	
C=C1CCC[C@]2(C)C[C@H]3OC(=O)C(CN(C)CC(OC)OC)[C@H]3CC12 (stereo partly drawn)	inconclusive: 35.5 µM [inhibitor, single point]	
COc1ccc(C(CNC(=O)COc2ccc(F)cc2Cl)N2CCOCC2)cc1 (stereo not drawn)		inactive: 19.8%
O=C(NCCc1ccc(Cl)cc1)c1cccn1-c1nnc(N2CCCCC2)s1	inconclusive: 2 µM [inhibitor, full curve, poor fit]	
COc1ccc([C@H]2CC(=O)C=C(c3cccc(Cl)c3)C2)cc1	inconclusive: 35.5 µM [inhibitor, single point]	
O=C(C[C@H]1C/C=C\C[C@H](NC(=O)OCC2c3ccccc3-c3ccccc32)C(=O)OC[C@H](Cc2ccccc2)NC1=O)N[C@H](CO)Cc1ccccc1	inconclusive: 35.5 µM [inhibitor, partial curve, poor fit]	
CN(C1CCCCC1)S(=O)(=O)c1ccc(C(=O)Nc2sc3c(c2C(N)=O)CC(C)(C)NC3(C)C)cc1	inconclusive: 35.5 µM [inhibitor, single point]	
CCN(CC(=O)Nc1ccc2c(c1)OCCO2)C(=O)/C=C/c1ccc(F)cc1		inactive: 11.3%
O=C(NCCc1ccc2c(c1)OCCO2)c1cc(S(=O)(=O)N2CCCC2)ccc1Cl	inconclusive: 25.1 µM [inhibitor, single point]	
CC(=O)c1cccc(NC(=O)C(C)OC(=O)C2CCC2)c1 (stereo not drawn)		inactive: 1.61%
CCOC(=O)C1=C(C)N(CC(C)C)C(=O)C1		inactive: -1.19%

Structure (SMILES)	Potency	activity, negative = inhibition
CN(C)c1ccc(/C=N/Nc2nc3ccccc3o2)cc1		inactive: 0%
COc1cc(/C=C(\CCC(=O)O)c2nc3ccccc3s2)ccc1OCC(=O)Nc1c(Cl)cccc1Cl		inactive: 1.94%
Cc1ccc(-n2c(SCc3ccccc3F)nc3[nH]ncc3c2=O)cc1C	inconclusive: 35.5 µM [inhibitor, single point]	
CC(Cc1cccs1)NC(=O)Nc1ccccc1 (stereo not drawn)		inactive: -13.8%
O/N=C1\CCCc2ccc(Cl)cc21	inconclusive: 35.5 µM [inhibitor, partial curve, poor fit]	
O=C(CSc1ccc2nc(-c3ccccc3)cn2n1)Nc1ccccc1C(F)(F)F		inactive: 0.879%
CCN(CC(=O)Nc1cc(Cl)ccc1C)C(=O)c1ccc(N2CCCC2=O)cc1		inactive: -19.5%
CCc1c(O)nc(SCC(=O)Nc2nc3ccccc3s2)n(C2CCCCC2)c1=O	inconclusive: 7.94 µM [inhibitor, partial curve, poor fit]	
CCN(CC)C(=O)C1=C(C)N(Cc2ccc(F)cc2)C(=O)C(CC(=O)NCC2CCCCC2)C1 (stereo not drawn)		inactive: -18.6%
Nc1nc(N)c(S(=O)(=O)c2ccccc2)c(Nc2ccc(Br)cc2)n1	inconclusive: 22.4 µM [inhibitor, single point]	
O=C(Cc1ccc(Cl)cc1)Nc1ccccn1	inconclusive: 2.82 µM [inhibitor, partial curve, poor fit]	
O=C(c1ccc([N+](=O)[O-])o1)N1CCCCCC1	inconclusive: 35.5 µM [inhibitor, single point]	
COC(=O)[C@H]1C[C@H](OC(=O)NC2CCCC2)[C@@]2(O)CN(S(=O)(=O)c3ccc(C)cc3)CC2[C@H]1C(=O)OC (stereo partly drawn)		inactive: -4.27%
CC1=CC(=C(C#N)c2nc3ccccc3s2)C=C(C)N1Cc1ccco1		inactive: -12.6%
CCN(c1ccccc1)S(=O)(=O)c1ccc2c(c1)N(C(C)=O)CCO2		inactive: -22%
NS(=O)(=O)c1ccc(-c2ccc(C=NC3CCS(=O)(=O)C3)o2)cc1 (stereo not drawn)	inconclusive: 31.6 µM [inhibitor, single point]	
O=C(Nc1ccc2c(c1)CCO2)Nc1nnc([C@H]2C[C@H](O)[C@@H](CO)O2)s1		inactive: -18.8%
O=C(Cn1cc(/C=N/NC(=O)c2ccccc2Br)c2ccccc21)Nc1ccc(F)cc1	inconclusive: 35.5 µM [inhibitor, single point]	
Cc1ccc(C)c(Cn2c3ccccc3c3cnn(CC(=O)NCCCN4CCCCC4)c(=O)c32)c1	inconclusive: 28.2 µM [inhibitor, single point]	
Cc1ccc(S(=O)(=O)N(CC(=O)Nc2ccc(Cl)c([N+](=O)[O-])c2)C2CCCCC2)cc1	active: 10 µM	
O=C(NC(NNc1ccc([N+](=O)[O-])cc1)(C(F)(F)F)C(F)(F)F)c1ccccc1Cl	inconclusive: 31.6 µM [inhibitor, single point]	
CC(C)c1csc(CN2CCN(CCc3ccccc3)C(CCO)C2)n1 (stereo not drawn)	inconclusive: 5.62 µM [inhibitor, single point]	
NC(=NCCc1c[nH]c2ccccc12)NC(=O)c1ccc(Cl)cc1	inconclusive: 25.1 µM [inhibitor, single point]	

Structure (SMILES)	Potency	activity, negative = inhibition
Oc1cccc2c(NC(=S)Nc3ccc(SC(F)F)cc3)cccc12	inconclusive: 31.6 µM [inhibitor, single point]	
COc1ccc(-n2c(=O)c3ccccc3n(Cc3ccc(F)cc3Cl)c2=O)cc1OC	inconclusive: 35.5 µM [inhibitor, single point]	
O=[N+]([O-])c1ccc(CS(=O)Cc2ccccc2)cc1 (stereo not drawn)	inconclusive: 0.316 µM [inhibitor, full curve, poor fit]	
O=C(Nc1ncc(Cc2cccc(Cl)c2)s1)C1=NCCN1	inconclusive: 35.5 µM [inhibitor, single point]	
CCOc1ccc(S(=O)(=O)N(C)c2ccc(OCC(=O)NCC3CCCCC3)cc2)cc1	inconclusive: 35.5 µM [inhibitor, single point]	
Cc1ccc(N(NC(=O)C(O)(c2ccccc2)c2ccccc2)C(=O)CCl)cc1	inconclusive: 12.6 µM [inhibitor, partial curve, poor fit]	
Cc1ccccc1N1CCN(CCC(=O)Nc2ccc(F)cc2)CC1		inactive: -3.9%
Cc1noc(C)c1CSc1nc2ccccc2n1CCc1ccccc1	inconclusive: 35.5 µM [inhibitor, single point]	
CCc1nc2ccc(C(=O)NCCc3ccc(SC)cc3)cc2nc1CC		inactive: -19.1%
COc1ccc(OC)c(NC(=O)Cn2c(=O)oc3cc(S(=O)(=O)NCc4ccccc4)ccc32)c1		inactive: -11.7%
Cc1ccnn1-c1ccc(C(=O)N2CCCN(S(=O)(=O)c3ccc(F)cc3)CC2)cc1		inactive: -10.1%
Cc1noc(C)c1COc1ccc(C(=O)NCC(c2c(F)cccc2Cl)N(C)C)cc1 (stereo not drawn)		inactive: 0%
CCOC(=O)c1ccc(N2C(=O)c3n[nH]c(-c4cccs4)c3C2c2ccc(O)c(OC)c2)cc1 (stereo not drawn)	inconclusive: 14.1 µM [inhibitor, partial curve, poor fit]	
OC1c2cc(Cl)cc(Cl)c2N=C2CCCN21 (stereo not drawn)		inactive: -27.7%
CC12CCC(C(=O)N3CCCCC3)([C@H](Br)C1=O)C2(C)C (stereo partly drawn)	inconclusive: 7.08 µM [inhibitor, partial curve, poor fit]	
OCc1cc([C@@H](O)CNCCCCCCOCCCCc2ccccc2)ccc1O	inconclusive: 35.5 µM [inhibitor, single point]	
CCN(C(=O)c1cc2c(s1)-c1c(C)cccc1OC2)c1cc(C)ccc1C	active: 11.2 µM	
COc1ccc(/C=C2/CCCC(CN(C)C)C2=O)cc1 (stereo not drawn)	active: 6.31 µM	
CCOc1cc(S(=O)(=O)n2cc(-c3ccc(F)cc3)c(N)n2)cc(OCC)c1OCC	inconclusive: 35.5 µM [inhibitor, single point]	
Cc1ccc(/C=N/NC(=O)c2cccc(NC(=O)c3ccccc3C)c2)o1	inconclusive: 35.5 µM [inhibitor, single point]	
COc1ccc(C(=O)CSc2nn3c(=O)c(C(C)(C)C)nnc3s2)cc1		inactive: -29.4%
CN(C)S(=O)(=O)c1cccc(NC(=S)NC23CC4CC(CC(C4)C2)C3)c1	inconclusive: 28.2 µM [inhibitor, single point]	
